According to PubChem BioAssay AID463173 (ICCB-Longwood Screening Facility, Harvard Medical School, 2010):
About 1,700 (3.3%) of roughly 52,000 compounds were called active. Rule as the data show it: active = survival mostly below about 52% (no sharp cut-off); inactive = mostly above about 56%. Some of the results follow.

test system: Wild type; assay: growth inhibition of S. aureus wild type versus tarO mutant, primary screen, teichoic acid synthesis inhibitors, RN4220, OD600 (AID 463173); settings: S. aureus RN4220 wild type/DeltatarO growth, OD600, 18 h, hits give low values, screened at 18.75 µg/mL (by protocol)

Question: `Cc1nnc(SCc2ccc(Cl)cc2Cl)o1` was tested. Which survival did it give?
Answer: inactive: 118%

Question: Which survival does the source give for `COc1ccc(S(=O)(=O)c2c(SC)nn(CC(=O)Nc3cccc(C)c3C)c2N)cc1` here?
Answer: inactive: 81%

Question: Which survival does the source give for `Cc1ccc2c(c1)NC(=O)c1cccnc1O2` here?
Answer: inactive: 74%

Question: With `Cc1ccc(-c2nc(CS(=O)(=O)CC(=O)NCCc3ccccc3)c(C)o2)cc1` as the compound, how does the survival read?
Answer: inactive: 99%

Question: Which survival does the source give for `COc1ccc(CNC(=O)Cn2nc(N3CCN(c4ccccc4)CC3)ccc2=O)c(OC)c1` here?
Answer: active: -4%

Question: With `O=C(Nc1ccc(OCc2cc(=O)n3ccccc3n2)cc1)c1ccccc1Cl` as the compound, how does the survival read?
Answer: inactive: 75%

Question: Which survival does the source give for `CCc1nnc(NC(=O)c2c(O)c3ccccc3[nH]c2=O)s1` here?
Answer: inactive: 102%

Question: `CC1=C(C(=O)Nc2ccccc2)C(c2ccncc2)n2nc(SCc3ccccc3F)nc2N1` (stereo unspecified) was tested. Which survival did it give?
Answer: inactive: 106%

Question: With `CCC(C)Nc1oc(-c2ccc(COc3ccc(Cl)cc3)o2)nc1C#N` (stereo unspecified) as the compound, how does the survival read?
Answer: inactive: 84%

Question: For `CCn1cc(C(=O)NCc2ccc(C)cc2)c(=O)c2cc(S(=O)(=O)N(C)C3CCCCC3)ccc21`, which survival is on record?
Answer: inactive: 83%

Question: For `CCc1ccc(CN(Cc2ccco2)C(=O)COc2ccc(Cl)c(C)c2)cc1`, which survival is on record?
Answer: inactive: 74%

Question: With `O=C(NC1CC1)C1CCN(C(=O)NCc2ccccc2)CC1` as the compound, how does the survival read?
Answer: inactive: 96%

Question: `CCC(C)NC(=O)CSc1nc2c(sc3ccccc32)c(=O)n1CCc1ccc(OC)c(OC)c1` (stereo unspecified) was tested. Which survival did it give?
Answer: inactive: 87%

Question: With `CCN(CC)c1nc2c(S(=O)(=O)c3cccc(Cl)c3)nnn2c2ccsc12` as the compound, how does the survival read?
Answer: inactive: 68%

Question: For `Cc1cccc(OCC(O)Cn2c(=N)n(CCN3CCCCC3)c3ccccc32)c1` (stereo unspecified), which survival is on record?
Answer: inactive: 91%

Question: `CCN1CCN(C(=O)Cn2c(-c3cccs3)cc3ccccc32)CC1` was tested. Which survival did it give?
Answer: inactive: 73%

Question: With `COc1nc(-c2ccccc2)ccc1-c1noc(-c2ccccc2Br)n1` as the compound, how does the survival read?
Answer: active: -2%

Question: With `O=C(CN1CCC(n2nnc3ccccc32)CC1)N(C1CCCCC1)C1CCCCC1` as the compound, how does the survival read?
Answer: inactive: 115%

Question: How did the survival turn out when `COc1cccc(OCc2cc(=O)n3c(-c4ccccc4)csc3n2)c1` was run?
Answer: inactive: 73%

Question: How did the survival turn out when `COC(=O)c1cccc(NC(=O)c2nsc3ccccc23)c1` was run?
Answer: active: 0%

Question: With `COc1ccc(CCNC(=O)c2ccc3c(c2)N(Cc2ccccc2F)C(=O)c2ccccc2S3=O)cc1OC` (stereo unspecified) as the compound, how does the survival read?
Answer: inactive: 108%

Question: How did the survival turn out when `COc1ccc(N2CCN(S(=O)(=O)CCNC(=O)COc3ccccc3F)CC2)cc1` was run?
Answer: inactive: 68%

Question: Which survival does the source give for `CCN(CC)S(=O)(=O)c1ccc(C(=O)NCCSc2c(-c3ccc(C)cc3)[nH]c3ccccc23)cc1` here?
Answer: inactive: 79%

Question: `CCOc1ccccc1CNC(=O)CCc1c(C)nn(-c2ccc(N3CCOCC3)nn2)c1C` was tested. Which survival did it give?
Answer: inactive: 73%

Question: With `CS(=O)(=O)N1CCC(C(=O)Nc2ccccc2)CC1` as the compound, how does the survival read?
Answer: inactive: 107%

Question: For `O=C(CN1C(=O)COc2ccc(S(=O)(=O)N3CCCC3)cc21)N1CCN(c2cccc(C(F)(F)F)c2)CC1`, which survival is on record?
Answer: inactive: 81%

Question: How did the survival turn out when `Cc1ccc(C(=O)Oc2c(S(=O)(=O)c3ccccc3)c(C)nn2-c2ccccc2)cc1` was run?
Answer: inactive: 57%

Question: For `CN1C(=O)c2ccccc2Sc2ccc(NC(=O)NCc3cccc(Cl)c3)cc21`, which survival is on record?
Answer: inactive: 78%

Question: For `CCOC(=O)CSc1nc(-c2ccc(Cl)cc2)cc(C(F)(F)F)c1C#N`, which survival is on record?
Answer: inactive: 68%

Question: `CC1Cc2ccccc2N1C(=O)CSc1nnc2n1C(C)(C)Cc1ccccc1-2` (stereo unspecified) was tested. Which survival did it give?
Answer: inactive: 105%

Question: How did the survival turn out when `Cc1ccc(Cc2nc3ccccc3nc2SCC(=O)N2CCCc3ccccc32)cc1` was run?
Answer: inactive: 87%

Question: For `Cc1ccccc1C(=O)NCCc1csc(-c2ccc(C(F)(F)F)cc2)n1`, which survival is on record?
Answer: inactive: 72%

Question: `COc1ccc(-n2c(-c3ccc(C)cc3)cc3c2CC(C)(C)CC3=O)c(OC)c1` was tested. Which survival did it give?
Answer: inactive: 96%

Question: With `Cc1cn2c(=O)cc(COC(=O)c3cccc(NC(=O)COc4ccccc4C)c3)nc2s1` as the compound, how does the survival read?
Answer: inactive: 80%

Question: Which survival does the source give for `Cc1ccc(NC(=O)CCNS(=O)(=O)c2cccc3nonc23)cc1Cl` here?
Answer: inactive: 60%

Question: For `CN1CCN(C(=O)C2CCCCC2C(=O)O)CC1` (stereo unspecified), which survival is on record?
Answer: inactive: 108%

Question: For `CCC(=O)n1nc(-c2ccc(OC)cc2)nc1SC`, which survival is on record?
Answer: inactive: 100%

Question: `CCCNC(=O)C(C)n1nc(C)c2c(C)n(-c3ccccc3)nc2c1=O` (stereo unspecified) was tested. Which survival did it give?
Answer: inactive: 75%

Question: `CCOC(=O)C1=C(CC)NC2=C(C(=O)CCC2)C1c1ccccc1` (stereo unspecified) was tested. Which survival did it give?
Answer: inactive: 101%

Question: For `Cc1ccc(CNC(=O)CSc2c3c(nc4cc(Cl)ccc24)CCCC3)cc1`, which survival is on record?
Answer: inactive: 83%

Question: With `Cc1c(-c2nc(-c3ccccc3F)no2)nnn1-c1cc(F)ccc1F` as the compound, how does the survival read?
Answer: inactive: 72%

Question: With `O=c1oc2cc(O)ccc2cc1-c1nnc(Nc2ccccc2F)s1` as the compound, how does the survival read?
Answer: inactive: 79%

Question: Which survival does the source give for `C/C(=N\O)C(=O)NCc1cccnc1` here?
Answer: inactive: 107%

Question: Which survival does the source give for `CCOc1ccccc1NC(=O)Cn1c(=O)n(Cc2ccco2)c(=O)c2ccc(C(=O)NC3CCCC3)cc21` here?
Answer: inactive: 82%

Question: How did the survival turn out when `Clc1ccc2c(c1)CN(C1CCCCC1)CO2` was run?
Answer: inactive: 109%

Question: `CCc1ccccc1NC(=O)C1CCN(C(=O)N2CC(C)Oc3ccc(Cl)cc32)CC1` (stereo unspecified) was tested. Which survival did it give?
Answer: inactive: 85%

Question: `Cc1cc(F)ccc1NC1(c2ccccc2)C(=O)c2ccccc2C1=O` was tested. Which survival did it give?
Answer: inactive: 71%

Question: `COc1ccc(Cl)cc1NC(=O)Cn1nc(Cc2ccncc2)c2ccccc2c1=O` was tested. Which survival did it give?
Answer: inactive: 80%

Question: With `N=C1SCC(=O)N1c1ccc(Cl)cc1` as the compound, how does the survival read?
Answer: inactive: 124%

Question: How did the survival turn out when `CCn1cc(C(=O)NCCc2ccc(OC)c(OC)c2)c(=O)c2cc(S(=O)(=O)N3CCC(C)CC3)ccc21` was run?
Answer: inactive: 83%

Question: Which survival does the source give for `CCOc1ccc(-n2c(SCC(=O)N3CCCCCC3)nc3c([nH]c4ccccc43)c2=O)cc1` here?
Answer: inactive: 124%

Question: `Cc1ccc(OC(=O)CSc2nnc(-c3cccs3)o2)cc1C` was tested. Which survival did it give?
Answer: inactive: 83%

Question: With `O=C(N1CCCCC1)N1CCC(c2nc3ccccc3[nH]2)CC1` as the compound, how does the survival read?
Answer: inactive: 84%

Question: `O=c1nc(N2CCOCC2)nc(N2CCOCC2)[nH]1` was tested. Which survival did it give?
Answer: inactive: 105%

Question: How did the survival turn out when `CC(C)C(=O)Nc1ccc(NC(=O)c2ccccc2)nc1` was run?
Answer: inactive: 106%

Question: `Cc1ccc(NC(=O)c2sc3nc[nH]c(=O)c3c2C)cc1Cl` was tested. Which survival did it give?
Answer: inactive: 135%

Question: With `CCOc1ccc(N(CC(=O)Nc2ccccc2CC)S(=O)(=O)c2c(C)[nH]c(=O)[nH]c2=O)cc1` as the compound, how does the survival read?
Answer: inactive: 75%

Question: Which survival does the source give for `Cc1c(Cl)cccc1-n1ncc(C(=O)NCc2cccs2)c1C1CCN(C(=O)OC(C)(C)C)CC1` here?
Answer: inactive: 69%

Question: Which survival does the source give for `COC(=O)c1c(NC(=O)c2cc(OC)c(OC)c(OC)c2Br)sc2c1CCC(C)C2` (stereo unspecified) here?
Answer: inactive: 14%

Question: How did the survival turn out when `COc1cc(C2c3c(-c4ccc(C)cc4)n[nH]c3C(=O)N2c2ccc(F)cc2)ccc1O` (stereo unspecified) was run?
Answer: inactive: 110%

Question: For `COc1ccc(CNC(=O)CCn2nc(C)c3c(C)n(-c4ccccc4)nc3c2=O)c(OC)c1`, which survival is on record?
Answer: inactive: 73%

Question: For `Cc1cccc(NC(=O)c2cc(S(=O)(=O)N3CCN(c4ccccc4F)CC3)ccc2F)c1C`, which survival is on record?
Answer: inactive: 72%

Question: How did the survival turn out when `CNC(=O)Cn1c(=O)c2cccn2c2ccc(F)cc21` was run?
Answer: inactive: 85%

Question: With `CC(C)CNc1ncnc2c1nnn2C` as the compound, how does the survival read?
Answer: inactive: 87%

Question: For `O=C(CCNS(=O)(=O)c1cccc2nsnc12)NCc1ccccc1`, which survival is on record?
Answer: inactive: 70%

Question: How did the survival turn out when `COc1ccc(CNC(=O)c2ccc3nc(CCc4ccccc4)oc3c2)c(OC)c1` was run?
Answer: inactive: 131%

Question: `COc1ccc(OC)c(C2C(C(=O)N3CCCCC3)=C(C)Nc3nc4ccccc4n32)c1` (stereo unspecified) was tested. Which survival did it give?
Answer: inactive: 68%

Question: `N#C/C(=C/c1cn(Cc2ccccc2Cl)c2ccccc12)C(=O)Nc1cccc(Cl)c1` was tested. Which survival did it give?
Answer: inactive: 104%

Question: How did the survival turn out when `COc1cc(NC(=O)N2CCC3(CC2)Nc2cc(F)ccc2-n2cccc23)cc(OC)c1OC` was run?
Answer: inactive: 79%

Question: Which survival does the source give for `CC(C)(C)c1ccc(CN(Cc2ccco2)c2cnc(S(C)(=O)=O)nc2C(=O)Nc2ccc(F)cc2)cc1` here?
Answer: inactive: 119%

Question: Which survival does the source give for `Cc1cc(C)c(NC(=O)Cn2c(=O)nc(-c3ccccc3)c3cc(Cl)ccc32)c(C)c1` here?
Answer: inactive: 70%

Question: For `Cc1ccccc1CN1c2ccccc2-c2nc(SCC(N)=O)ncc2S1(=O)=O`, which survival is on record?
Answer: inactive: 80%

Question: How did the survival turn out when `Cc1cc(=O)n(Cc2cccc(F)c2)c2c1c(C)nn2-c1cccc(F)c1` was run?
Answer: inactive: 133%

Question: For `CCc1cccc(CC)c1-n1nnc2c(sc3nc(C)cc(C)c32)c1=O`, which survival is on record?
Answer: inactive: 85%

Question: For `Clc1ccc(OCc2nc3ccccc3n2Cc2ccccc2)c(Cl)c1`, which survival is on record?
Answer: active: 7%

Question: With `O=C(CSc1nc(-c2ccc(F)cc2)[nH]c1-c1ccccc1)Nc1ccccc1` as the compound, how does the survival read?
Answer: inactive: 70%

Question: Which survival does the source give for `CCc1ccc(-c2nn(CC(=O)Nc3ccccc3C)c3c2cnc2ccc(C)cc23)cc1` here?
Answer: inactive: 79%

Question: For `COc1cc(NC(=O)c2nc3ccccc3nc2N2CCCCC2)cc(OC)c1OC`, which survival is on record?
Answer: inactive: 82%

Question: `Cc1ccc(C)c(NC(=O)c2nn(C)c3c2CS(=O)(=O)c2ccccc2-3)c1` was tested. Which survival did it give?
Answer: inactive: 90%

Question: For `CC(C)(C)C1CCc2c(sc3nnn(CCOc4ccccc4)c(=O)c23)C1` (stereo unspecified), which survival is on record?
Answer: inactive: 89%

Question: Which survival does the source give for `COc1cc(/C=C/c2nc(C#N)c(NCCc3ccccc3)o2)cc(OC)c1OC` here?
Answer: inactive: 64%

Question: How did the survival turn out when `Cc1ccc(-c2nn(CC(=O)NC3CCCC3)c3c2cnc2ccccc23)cc1` was run?
Answer: inactive: 128%

Question: How did the survival turn out when `Cc1ccc(C)c(NC(=O)CN2C(=O)c3cccnc3Oc3ccc(C)cc32)c1` was run?
Answer: inactive: 74%

Question: `Cc1cccc(-c2nnc(SCC(=O)OC(C)C)n2C)c1` was tested. Which survival did it give?
Answer: inactive: 106%

Question: How did the survival turn out when `Cc1cccc(-c2nc(CSCC(=O)NCCc3ccc(Cl)cc3)c(C)o2)c1` was run?
Answer: active: -3%

Question: How did the survival turn out when `Cc1ccc(CNC(=O)c2ccc(-c3nc(CS(=O)c4ccccc4)c(C)o3)cc2)cc1` (stereo unspecified) was run?
Answer: inactive: 79%

Question: For `CC1CCCN(C(=O)C2CCN(CC3CC=CCC3)CC2)C1` (stereo unspecified), which survival is on record?
Answer: inactive: 106%

Question: `COc1ccc2c(c1)N(C)/C(=C1/SC(=O)N(c3ccccc3)C1=O)S2` was tested. Which survival did it give?
Answer: inactive: 85%

Question: How did the survival turn out when `COCCn1ccc2c(OCC(=O)Nc3ccccc3F)cccc2c1=O` was run?
Answer: inactive: 19%

Question: For `COc1ccccc1NC(=O)C1CCN(C(=O)c2ccccc2)CC1`, which survival is on record?
Answer: inactive: 94%

Question: For `CCOC(=O)N1CCc2c(sc3c2c(=O)n(CCc2ccccc2)c(=O)n3CC(=O)Nc2cccc(C)c2)C1`, which survival is on record?
Answer: inactive: 82%
